First the molecules themselves.
T1: UNK ZnF1-3 (human, UniProt Q9C0B0 31-174)
T1 sequence: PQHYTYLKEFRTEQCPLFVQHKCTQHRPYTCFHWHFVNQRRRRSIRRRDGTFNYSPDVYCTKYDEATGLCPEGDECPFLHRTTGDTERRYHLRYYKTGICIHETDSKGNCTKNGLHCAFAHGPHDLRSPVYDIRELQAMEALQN

B1: chr1:52991732:52991733:-_ENSG00000134744_ENST00000257177|hu_hu|motif|central (ssRNA)
RNA: GGGAGUUCUACAGUCCGACGAUCUUUAGGACCUGGAAGGUUGGCAGCAUUUACUUUACAUGAUUUAACUUCUGUUUUUUCGGUACAAAUAUCAUUUUGCUUAUUUUUUUUACUACUAUUCCUAUUUGGAGAGCUGUUCUCAAUCAACAGAGGAUUGAGCAUCA
B2: 208598739_208606946_670_CDS_ENSG00000163249_ENST00000295414|human|control|control (ssRNA)
RNA: GGGAGUUCUACAGUCCGACGAUCUGUAAGUGGAUGUGAUCUCUCAUCAAAAAUAUCCAGGGAUCUAUUUGCAUCUCUGUUCUUUAUGUGGUAAUAUAUUGCUAAGGUCACACAUUUUACUGUGGUUCUAAGAUUAGGCUGGCUCAACAGAGGAUUGAGCAUCA
B3: chr11:77336104:77336105:-_ENSG00000074201_ENST00000525064|hu_mus|hu_hu_hu_mus_False|18_68 (ssRNA)
RNA: GGGAGUUCUACAGUCCGACGAUCCUCACACAUUGCUGUGAACAUCGCCUCCAAUGCUGACUUAUCACUAGGCACAAAUCGAAAUUCAGAAAUGGGUUCAACAUCAUCAUUGUCUUCUUCCUCUUCUUCAGAGAGAGGUUCUUUCAACAGAGGAUUGAGCAUCA
B4: chr3:31621302:31621303:+_ENSG00000163527_ENST00000295770|hu_hu|FALSE|FALSE (ssRNA)
RNA: GGGAGUUCUACAGUCCGACGAUCUAAAAUCCAAUGAAUAAGGCCAGCGGUUAUCAUCAACCCUGGGUAAACAGUACCACCUACUAUUCUUCCUAGUGGAUACCAUGCUCUUUCAUCAAACCAAUUUAAAAAUUCAUAGAACCCCAACAGAGGAUUGAGCAUCA
B5: 4383590_4383710_126_3pUTR_ENSMUSG00000041124_ENSMUST00000047173|mouse|control|control (ssRNA)
RNA: GGGAGUUCUACAGUCCGACGAUCGCUUUUCCUUUUUCUUUUCAAUUGCUUCAUUUUUAAAAAUCCAGUGCAGAUUUUAACAGCAAAAAGAGCUGUGCAAAGAAUGUGAAGAGUGUGCCACAAACCCAAGGCUUUGUUGGCUCUCAACAGAGGAUUGAGCAUCA
B6: chr1:193053832:193053833:+_ENSG00000116747_ENST00000432079|hu_hu|motif|central (ssRNA)
RNA: GGGAGUUCUACAGUCCGACGAUCGAUCACUGAUGGCAAUGGAUCUCUGGAUCGUGCUGCUGCUUAUGGUUAAAUCAUAUCGGAUGUGAAAUUUCGAAUUACAUCCAGAGCUCCAGUAUCAAAGCCGCACAUAUCCAACAUGCCCAACAGAGGAUUGAGCAUCA
B7: chr20:57485947:57485948:+_ENSG00000087460_ENST00000306090|hu_hu|motif|central (ssRNA)
RNA: GGGAGUUCUACAGUCCGACGAUCGGGGGUUUCGCAAAAUCACUCGGGGGAAGGGAAAGGUUGCUUUGUUAAUCAUGCCCGGUGGUGGGUGAUUAACUGCUUGUACAAUUACGUUUCACUUUUAAUUAAUUGUGCUUAAGGCUUCAACAGAGGAUUGAGCAUCA
B8: chr4:84185219:84185220:-_ENSG00000173085_ENST00000439031|hu_hu|motif|central (ssRNA)
RNA: GGGAGUUCUACAGUCCGACGAUCUCUGUGACAAGGGGGAAUUUUGCUAGCAAAUAAGUAAAAUCCAGGUAAAUAUGCUCGGAAUCUUCAUCUUCAGGUUCUUAAUUCUUUAACAUAUUGUAUCAGAUUUUGUAUUCAAAUCUACAACAGAGGAUUGAGCAUCA
B9: chrX:98510588:98510589:+_ENSMUSG00000031302_ENSMUST00000065858|mus_mus|motif|central (ssRNA)
RNA: GGGAGUUCUACAGUCCGACGAUCAUGAGACAGUGUAAGGAGACUGACACAGGAUGCACCGAUGCCAGAGCCAAAGACAGUAAUUCGGCGGGGAUCUCCUCCAAAGAAGGCAAUAUUCUCACUCACCCAGCGAAGGGCCUGGAUCAACAGAGGAUUGAGCAUCA
B10: 42876026_42876146_3379_3pUTR_ENSG00000023516_ENST00000025301|human|control|control (ssRNA)
RNA: GGGAGUUCUACAGUCCGACGAUCUUUAUCUUCCACAUGCAAACCAUCUACACAGGUAAGUGCUGUAGAUGAGAAAGUAUGUGAAUGAGGAAAGGGGUUUUCCUGUCCAAAAGACAAGGCCUCAAGUGAUGUACUAUUCAAGUUCAACAGAGGAUUGAGCAUCA
B11: 4793058_4793178_250_3pUTR_ENSG00000120158_ENST00000381750|human|control|control (ssRNA)
RNA: GGGAGUUCUACAGUCCGACGAUCGGGGCGCCCGCUCAGGGUAGACAGGACCAGACGUUGGCGCAAGAAGUUGCACCCUGCGUAGCUGAGGGAGUGCGCCUGAGUCGCCAUGUGCGCGCUCUCCGAAGAGACGUGAGCAGCCCGCAACAGAGGAUUGAGCAUCA
B12: chr1:165664616:165664617:-_ENSG00000143149_ENST00000354775|hu_mus|FALSE|FALSE (ssRNA)
RNA: GGGAGUUCUACAGUCCGACGAUCCUUUGCAUUCUCAACGGCCAAGUUUACUUCCUUUUCUCCUGAACACGCGAAAGUGGCAAUCACUCGGCCGGUGGCUGGCUCGAACGCUUUCUCCGUGCCGGAAGCAUCCACCGGCUCCACCAACAGAGGAUUGAGCAUCA
B13: chr17:31789506:31789507:-_ENSMUSG00000061613_ENSMUST00000166526|mus_hu|FALSE|FALSE (ssRNA)
RNA: GGGAGUUCUACAGUCCGACGAUCAGACUGGGAAGAGUUUUGAGGGUUACGGUAAAUGUUCAAGAGGGCAAUGGUCUGGCUAAACGUCGGUUUAUUGUGCAACCGAGAGCACCUGUCUCCAUGACGACAUGCUCCAAUUUUGAACAACAGAGGAUUGAGCAUCA
B14: chr5:36177297:36177298:+_ENSG00000145604_ENST00000274255|hu_hu|motif|central (ssRNA)
RNA: GGGAGUUCUACAGUCCGACGAUCCUUUAGCAUGACACUAUCACUUAAGUCUAGAUGGACAAGAUUGGGGCAUCUUCGGACGGAAGUAGAGAGAUCUGAUUUCUGGAGAUUCUUUCUGUAGCCGCUAAGAUUCAGCUGGGUGAUCAACAGAGGAUUGAGCAUCA
B15: chr2:32086683:32086684:+_ENSMUSG00000039262_ENSMUST00000036691|mus_hu|FALSE|FALSE (ssRNA)
RNA: GGGAGUUCUACAGUCCGACGAUCCAGAGGCUAGAGAUGGAAGGGAGCGGAGGGGCUGGCAAGAAACAUAUAAAAGUUCAGCUAUACACAUGGAGCUUGCGUUUUUGUUUUCUUUUCCUUUCCCCUUUGUAAAAACCUUGGCUACAACAGAGGAUUGAGCAUCA
B16: chr12:125510211:125510212:+_ENSG00000184992_ENST00000341446|hu_mus|FALSE|FALSE (ssRNA)
RNA: GGGAGUUCUACAGUCCGACGAUCUAUCCGACUACACAGCUAACAGGGGGUAUAUCCGUUGUUUAAAAACUGCUUUCCCACUGGUGAUCUACGAAAGUGCUCUCUCCUCCAGUGGCUCCUAAGGUCGACACACAGUGGGAAAUACAACAGAGGAUUGAGCAUCA
B17: 87408211_87419820_547_CDS_ENSMUSG00000024145_ENSMUST00000024957|mouse|control|control (ssRNA)
RNA: GGGAGUUCUACAGUCCGACGAUCUGUAGUGAUCUGAAGACUAUUCUCCCAAAUAGAUGUAACUCCAUUUCUACUGAAAACUCUCAGCCAUGCUUUGAGGUUUGGUCCUAACAAACAGAGACAAGGUACUGUAGUAAAAGUAGACAACAGAGGAUUGAGCAUCA
B18: chr2:198351390:198351391:-_ENSG00000144381_ENST00000345042|hu_hu|hu_hu_hu_mus_False|1_18 (ssRNA)
RNA: GGGAGUUCUACAGUCCGACGAUCUCAUUCCCACCCUCCACAGAAAGGCUGCUUCUGAACUCUCAUGUGGUGACACAGCGCUACAGUCCUGAUGCUCACAGAACAGUAGAGAUGCCUCCUCAGUGAUAGUUGAAAGCAGCAGUACAACAGAGGAUUGAGCAUCA
B19: chr9:95013113:95013114:-_ENSG00000196305_ENST00000443024|hu_hu|hu_hu_hu_mus_False|1_108 (ssRNA)
RNA: GGGAGUUCUACAGUCCGACGAUCCUCAGUGAGAAAAGGCGUGUAAGGGGCCAUCAGUCUGCACAGAGAAAGCAGGACACUGAACAGUGUCUCCAGAGCCAUGACACAGUCUUCCACCCCACUCUCACCCUUUAACCUUCUGCGCAACAGAGGAUUGAGCAUCA
B20: chr7:149068622:149068623:-_ENSMUSG00000025139_ENSMUST00000001950|mus_hu|mus_mus_mus_hu_False|28_68 (ssRNA)
RNA: GGGAGUUCUACAGUCCGACGAUCGUGAGGCCUCUGAGUGUGGCUUGUGGUCUGUCCUGGGUUAGAGCUGCUGGUAACACGGAACAUACCAUCUAGAACGUUCCAGUCUGCCUGACUACCUUCAUUCCCAAUGGAGAAGAAAUCCAACAGAGGAUUGAGCAUCA
B21: chr4:107908409:107908410:-_ENSMUSG00000034636_ENSMUST00000043616|mus_hu|FALSE|FALSE (ssRNA)
RNA: GGGAGUUCUACAGUCCGACGAUCACUGUAGAAUCUCAAGCACAAGUAAGUUCAAACACUGAAAGAUGUGGAAAAUUUCCUAAAAGGCAAUGAUAAAGGAAGAGACCCUUCUUGACUCAUAAGUUUAAAAUCACAAGACAAAUUCAACAGAGGAUUGAGCAUCA
B22: chr14:103802106:103802107:+_ENSG00000100664_ENST00000558506|perfect_dup|FALSE|FALSE (ssRNA)
RNA: GGGAGUUCUACAGUCCGACGAUCGAGAUCUUUGAUUGCAACUUUUUGGUAUCUUCUGUCUGGAGAAGAAGGGAUGACAUAAACGACUGCAAGAGUUCUCGGUCUCUGACAUGAAAAAAUUUUCGCCACUGAGGCUGUAAGCUUCAACAGAGGAUUGAGCAUCA

Some of the results follow.

The assay deals with T1, UNK ZnF1-3. Briefly: nsRBNS (natural sequence RNA bind-n-seq); RBNS binding buffer (assumed for nsRBNS): 25 mM Tris pH 7.5, 150 mM KCl, 3 mM MgCl2, 0.01% Triton X-100, 500 ug/ml BSA, 20 U/ml SUPERase-In, 4 C; UNK is unkempt and MSI1 is Musashi-1; names of the RNAs are library labels; protein concentration not given here; high values mean tight binding.
As for B1, the binding signal came to 0.639 enrichment R.
Then B2, with 0.935 enrichment R.
The molecule B3 registered a binding signal of 0.838 enrichment R.
Then B4, with 1.29 enrichment R.
The molecule B5 returned a binding signal of 1.15 enrichment R.
Then B6, with 0.864 enrichment R; and B7, with 0.836 enrichment R; and B8, with 0.312 enrichment R.
To B9 belongs 1.21 enrichment R; to B10, 0.594 enrichment R; to B11, 0.563 enrichment R.
Then B12, with 0.642 enrichment R.
Consider B13, for which the binding signal was found to be 1.24 enrichment R.
Then B14, with 0.932 enrichment R.
Then B15, with 1.5 enrichment R; and B16, with 0.631 enrichment R; and B17, with 1.11 enrichment R.
On to B18, for which the binding signal amounted to 0.964 enrichment R.
Then B19, with 1.07 enrichment R; and B20, with 0.677 enrichment R; and B21, with 1.06 enrichment R.
To B22 belongs 0.78 enrichment R.

The record behind these values is paper PMC12136788.
